The list shows a part of the results.
What was measured:
HSkMC = human skeletal muscle cells; experiment: cytotoxicity call (relative viability < 0.9); settings: 10 µM
S. aureus RN4220 = experiment: growth inhibition call (relative growth <= 0.2); settings: 50 µM

Structure (SMILES) | cytotoxicity call (HSkMC) | growth inhibition call (S. aureus RN4220)
Cc1ccc(S(=O)(=O)N(C)C[C@@H]2OCCCC[C@@H](C)Oc3ccc(NC(=O)Nc4ccc(C(F)(F)F)cc4)cc3C(=O)N([C@@H](C)CO)C[C@@H]2C)cc1 | inactive | inactive
C[C@@H]1CN([C@@H](C)CO)C(=O)c2cc(NC(=O)CCC(F)(F)F)ccc2O[C@@H](C)CCCCO[C@H]1CN(C)Cc1ccc2c(c1)OCO2 | inactive | inactive
C[C@@H]1CN([C@@H](C)CO)C(=O)c2cccc(NC(=O)Nc3ccc(C(F)(F)F)cc3)c2O[C@@H]1CN(C)C(=O)Nc1ccccc1 | inactive | active
C[C@H](C(=O)O)N1CCCCC1 | inactive | inactive
O=C(CCCCC(=O)N/N=C/[C@H](O)[C@@H](O)[C@H](O)CO)NO | inactive | inactive
Cc1ccnc([C@@H](N)C2CC2)c1 | inactive | inactive
O=C1CN(S(=O)(=O)Cc2ccccc2)C[C@H]2[C@@H](c3ccc(C#Cc4ccc(F)cc4)cc3)[C@@H](CO)N12 | inactive | inactive
C[C@@H]1CCCCO[C@@H](CN(C)C(=O)Nc2ccc(F)cc2)[C@H](C)CN([C@H](C)CO)C(=O)c2cc(NC(=O)c3ccncc3)ccc2O1 | inactive | inactive
CNC[C@@H]1Oc2c(NS(=O)(=O)c3cn(C)cn3)cccc2C(=O)N([C@H](C)CO)C[C@@H]1C | inactive | inactive
CC(C)C[C@@H]1NC(=O)[C@@H]2C[C@H](C(=O)NCCCCCNC(=O)CS)[C@H](c3cccc(OCCO)c3)N2C1=O | inactive | inactive
COc1ccc(COC[C@]23N=C4Sc5ccc([N+](=O)[O-])cc5C(=O)N4[C@H](c4ccccc4O2)[C@H]3CO[Si](C)(C)C(C)(C)C)cc1 | inactive | inactive
C[C@H](CO)N1C[C@H](C)[C@H](CN(C)C(=O)Nc2ccc(F)cc2)Oc2ncc(-c3cccc(C(F)(F)F)c3)cc2C1=O | inactive | inactive
CC/N=C1\S[C@@H](CC(=O)NC)C(=O)N1CC | inactive | inactive
Cc1ccc(S(=O)(=O)N(C)C[C@@H]2OCCCC[C@@H](C)Oc3ccc(NC(=O)C4CCCCC4)cc3C(=O)N([C@H](C)CO)C[C@@H]2C)cc1 | inactive | inactive
COCCOC(=O)N1C(=O)[C@@]2(c3cc(C#CC4(O)CCCCCC4)ccc31)[C@H](c1ccc(OCCO)cc1)N1[C@H](c3ccccc3)[C@H](c3ccccc3)OC(=O)[C@H]1[C@@H]2C(N)=O | inactive | inactive
C[C@H]1CN([C@@H](C)CO)C(=O)Cc2cc(NC(=O)Nc3ccc(C(F)(F)F)cc3)ccc2O[C@H]1CN(C)C(=O)Nc1ccc2c(c1)OCO2 | inactive | inactive
Cc1noc(C)c1S(=O)(=O)Nc1ccc2c(c1)CC(=O)N([C@H](C)CO)C[C@@H](C)[C@H](CN(C)C(=O)Nc1ccccc1)O2 | inactive | inactive
CC(C)NC(=O)Nc1ccc2c(c1)C(=O)N([C@@H](C)CO)C[C@H](C)[C@@H](CN(C)Cc1ccc(C(=O)O)cc1)O2 | inactive | inactive
Cc1cccc(Oc2ccc(NC(=O)C3CCC(C)CC3)cc2)c1 (centres undefined) | inactive | inactive
Cc1ccc(S(=O)(=O)N(C)C[C@H]2OCCCC[C@H](C)Oc3ccc(NS(=O)(=O)c4ccc(F)cc4)cc3C(=O)N([C@@H](C)CO)C[C@@H]2C)cc1 | inactive | inactive
C[C@@H]1CN([C@@H](C)CO)C(=O)c2cccc(NC(=O)Nc3ccc(F)cc3)c2O[C@@H]1CN(C)C(=O)Nc1cccc2ccccc12 | inactive | inactive

Structure (SMILES) | cytotoxicity call (HSkMC) | growth inhibition call (S. aureus RN4220)
C[C@@H]1CCCCO[C@H](CN(C)CC2CCCCC2)[C@@H](C)CN([C@H](C)CO)C(=O)c2cc(NS(=O)(=O)c3ccc(F)cc3)ccc2O1 | inactive | inactive
O=C(O)c1ccc(N[C@@H]2O[C@H](CO)[C@@H](O)[C@@H]2O)cc1 | inactive | inactive
C[C@@H]1CCCCO[C@@H](CN(C)Cc2ccc3c(c2)OCO3)[C@@H](C)CN([C@@H](C)CO)C(=O)c2cc(NS(=O)(=O)c3cccs3)ccc2O1 | inactive | inactive
COc1ccc(C#Cc2ccc3c(c2)O[C@H](CN(C)C(C)=O)[C@@H](C)CN([C@@H](C)CO)S3(=O)=O)cc1 | inactive | inactive
Cc1cc(C(=O)Nc2cccc3c2O[C@@H](CN(C)Cc2ccc(Oc4ccccc4)cc2)[C@@H](C)CN([C@@H](C)CO)C3=O)n(C)n1 | inactive | inactive
C[C@@H]1CN([C@@H](C)CO)C(=O)c2cc(C#CCN(C)C)cnc2O[C@H]1CN(C)C(=O)c1ccc2c(c1)OCO2 | inactive | inactive
COc1ncc(NC(=O)C2CC2)c(OC)n1 | inactive | inactive
C[C@H](C(=O)N(C)C[C@@H]1OCc2ccccc2-c2c(n(C)c3ccccc23)C(=O)N([C@@H](C)CO)C[C@@H]1C)c1ccccc1 | inactive | inactive
CC(C)NC(=O)N(C)C[C@H]1Oc2ccc(NS(=O)(=O)c3cccs3)cc2C(=O)N([C@H](C)CO)C[C@@H]1C | inactive | inactive
Cc1noc(C)c1S(=O)(=O)Nc1ccc2c(c1)CC(=O)N([C@@H](C)CO)C[C@@H](C)[C@@H](CN(C)C(=O)NC1CCCCC1)O2 | inactive | inactive
COc1ccc(NC(=O)N(C)C[C@H]2OCCCC[C@@H](C)Oc3ccc(NS(=O)(=O)c4cccs4)cc3C(=O)N([C@H](C)CO)C[C@H]2C)cc1 | inactive | inactive
C[C@@H]1CN([C@@H](C)CO)C(=O)c2cc(NC(=O)Nc3ccc4c(c3)OCO4)ccc2O[C@@H](C)CCCCO[C@H]1CN(C)C(=O)Nc1ccc(C(F)(F)F)cc1 | inactive | inactive
C[C@@H]1CN([C@@H](C)CO)S(=O)(=O)c2ccc(C#Cc3ccc(F)cc3)cc2O[C@@H]1CN(C)C(=O)CN(C)C | inactive | inactive
C[C@H]1CN([C@@H](C)CO)S(=O)(=O)c2ccc(-c3ccc(F)cc3)cc2O[C@@H]1CN(C)S(C)(=O)=O | inactive | inactive
CC(C)[Si]1(C(C)C)O[C@@H](c2ccccc2)c2cc(C3CC3)nc(-c3ccc(Oc4ccccc4)cc3)c21 | inactive | inactive
C[C@@H]1CN([C@@H](C)CO)C(=O)c2cccc(NC(=O)Nc3cccc4ccccc34)c2O[C@H]1CN(C)S(=O)(=O)c1ccc2ncsc2c1 | inactive | inactive
C[C@H]1CCCCO[C@H](CN(C)S(=O)(=O)c2cn(C)cn2)[C@@H](C)CN([C@@H](C)CO)C(=O)c2cc(NS(=O)(=O)c3cccs3)ccc2O1 | inactive | inactive
OCC1OC(OC2C(O)C(CO)OC2(CO)OC2OC(CO)C(O)C(O)C2O)C(O)C(O)C1O (centres undefined) | inactive | inactive
O=C(CN1CCOCC1)NCC[C@H]1CC[C@@H](NC(=O)c2ccc3c(c2)OCO3)[C@@H](CO)O1 | inactive | inactive
C[C@@H]1CN([C@@H](C)CO)C(=O)c2cc(NS(C)(=O)=O)ccc2O[C@@H]1CN(C)Cc1ccc(C(=O)O)cc1 | inactive | inactive
COc1ccc(C(=O)NC(CO)(CO)CO)cc1OC | inactive | inactive

Structure (SMILES) | cytotoxicity call (HSkMC) | growth inhibition call (S. aureus RN4220)
N=C1CCCN1Cc1[nH]c(=O)[nH]c(=O)c1Cl | inactive | inactive
COc1cccc(NC(=O)N[C@@H]2C=C[C@@H](CC(=O)N3CCOCC3)O[C@@H]2CO)c1 | inactive | inactive
C[C@H]1CN([C@@H](C)CO)C(=O)Cc2cc(NS(C)(=O)=O)ccc2O[C@H]1CN(C)C(=O)Nc1ccc(F)cc1 | inactive | inactive
O=C(Nc1cc(C(F)(F)F)cc(C(F)(F)F)c1)Nc1c(Br)cc(Br)cc1-c1nn[nH]n1 | inactive | active
C[C@@H]1CN([C@@H](C)CO)C(=O)Cc2cc(NS(=O)(=O)c3ccc(Cl)cc3)ccc2O[C@H]1CN(C)Cc1ccc(Cl)c(Cl)c1 | active | inactive
O=C(C[C@@H]1C[C@H]2c3cc(NC(=O)Cc4ccncc4)ccc3O[C@H]2[C@H](CO)O1)NCCN1CCCCC1 | inactive | inactive
Nc1no[n+]([O-])c1-c1ccccc1 | inactive | inactive
C[C@H]1CCCCO[C@H](CN(C)C(=O)Nc2ccc(F)cc2)[C@@H](C)CN([C@@H](C)CO)C(=O)c2cc(NS(=O)(=O)c3cccs3)ccc2O1 | inactive | inactive
CCC(=O)Nc1ccc(Cl)cc1 | inactive | inactive
CNCCC(Oc1ccccc1C)c1ccccc1.Cl (centres undefined) | inactive | inactive
COc1ccc(NC(=O)N(C)C[C@H]2Oc3ccc(NC(=O)Nc4cccc5ccccc45)cc3C(=O)N([C@@H](C)CO)C[C@@H]2C)cc1 | inactive | inactive
Cc1ccc(N2CCC[C@]3(CCNC3=O)C2)nn1 | inactive | inactive
C[C@H](CO)N1C[C@H](C)[C@H](CN(C)Cc2ccc(C(F)(F)F)cc2)Oc2ccc(NC(=O)CCCCCC(=O)Nc3ccccc3N)cc2C1=O | inactive | inactive
Cc1ccc(-c2csc(-c3ccc(CN)cc3)n2)cc1 | active | inactive
C[C@H](CO)N1C[C@H](C)[C@H](CN(C)S(=O)(=O)c2cccs2)Oc2ccc(NC(=O)Cn3cnnn3)cc2CC1=O | inactive | inactive
O=c1[nH][n+](-c2ccccc2)no1 | inactive | inactive
COc1ccc(S(=O)(=O)N(C)C[C@H]2Oc3ccc(NC(=O)CCN4CCOCC4)cc3C(=O)N([C@@H](C)CO)C[C@@H]2C)cc1 | inactive | inactive
Cc1ccc(S(=O)(=O)N(C)C[C@H]2Oc3ccc(NS(C)(=O)=O)cc3CC(=O)N([C@@H](C)CO)C[C@H]2C)cc1 | inactive | inactive
COc1ccc(S(=O)(=O)Nc2ccc3c(c2)C(=O)N([C@H](C)CO)C[C@@H](C)[C@H](CN(C)Cc2ccccc2)OCCCC[C@@H](C)O3)cc1 | inactive | inactive
C[C@@H]1CN([C@@H](C)CO)C(=O)c2cc(NS(C)(=O)=O)ccc2O[C@@H](C)CCCCO[C@H]1CN(C)CC1CC1 | inactive | inactive

Reference: the antibiotic and cytotoxicity screens of Wong et al. (2023)
